# PMC5540273 (PLoS ONE, 2017)
# The entries are a selection whose mix differs from that of the whole data set. The list shows a part of the results.
# What was measured:
# IKK-alpha = test system: T1, IKK-alpha
# T1 construct: gene CHUK
# MST2 = test system: T2, MST2
# T2 construct: gene STK3
# ARK5 = test system: T3, ARK5
# T3 construct: gene NUAK1
# GCN2(Kin.Dom.2,S808G) = test system: T4, GCN2(Kin.Dom.2,S808G)
# T4 construct: gene EIF2AK4
# [1] = test system: JAK1(JH1domain-catalytic)
# LKB1 = test system: T5, LKB1
# T5 construct: gene STK11
# [2] = test system: JAK3(JH1domain-catalytic)
# 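Further: kd values determined as follow-up on hits from a single-replicate KINOMEscan panel screen.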
smiles,measurement,setting,value
O=C1NC(=O)C(c2ccccc2Cl)=C1Nc1cccc(C(=O)O)c1 [SB-390526],Kd,ABL1-phosphorylated,> 10 µM
same,Kd,CLK2,0.4 µM
same,Kd,HIPK1,0.21 µM
same,Kd,HIPK2,0.14 µM
same,Kd,HIPK3,0.34 µM
same,Kd,IKK-alpha,> 10 µM
same,Kd,MST2,> 10 µM
COc1ccc(C2=C(Nc3cccc(Cl)c3)C(=O)NC2=O)cc1 [SB-326892],Kd,ARK5,> 10 µM
same,Kd,CLK1,0.39 µM
same,Kd,CLK2,1.3 µM
same,Kd,"GCN2(Kin.Dom.2,S808G)",> 10 µM
same,Kd,GSK3A,0.44 µM
same,Kd,[1],> 10 µM
CSc1ccc(NC2=C(c3cccc(Cl)c3)C(=O)NC2=O)cc1 [SB-341528],Kd,BUB1,> 10 µM
Cc1cc(C)cc(Oc2nccc(-c3c(-c4ccc(F)cc4)ncn3C3CCNCC3)n2)c1.O=C(O)C(F)(F)F.O=C(O)C(F)(F)F.O=C(O)C(F)(F)F [SB-284851],Kd,CIT,0.41 µM
same,Kd,CSNK1D,0.16 µM
same,Kd,ERBB2,0.25 µM
same,Kd,[1],> 10 µM
O=C1NC(=O)C(c2ccccc2Cl)=C1Nc1ccccc1 [SB-376715],Kd,CSNK1G1,> 10 µM
same,Kd,GAK,> 10 µM
same,Kd,LKB1,> 10 µM
O=C1NC(=O)C(c2ccccc2)=C1Nc1cc(Cl)c(O)c(Cl)c1 [SB-390530],Kd,[2],0.38 µM
